Measured values as given in PubChem BioAssay AID488969 (Vanderbilt High Throughput Screening Facility, 2010).
The full ranking holds about 110,000 compounds; the median of “z-score” is about -0.1, and the highest 2% start at about 2. The list shows a part of the results.

Target: Metabotropic glutamate receptor 8 (Rattus norvegicus) (UniProt P70579)
Assay: mGluR8 Gi/Go-coupled signaling modulation – cell-based, rat, thallium flux, HTS, primary screen (AID 488969)
Details: HEK293 rat mGluR8, GIRK (G protein-gated inwardly rectifying potassium channel) thallium flux, FluoZin2; at 10 µM; stronger effect = higher value; submaximal glutamate (EC20) added with thallium

UniProt P70579, sequence (P70579 whole entry, looked up): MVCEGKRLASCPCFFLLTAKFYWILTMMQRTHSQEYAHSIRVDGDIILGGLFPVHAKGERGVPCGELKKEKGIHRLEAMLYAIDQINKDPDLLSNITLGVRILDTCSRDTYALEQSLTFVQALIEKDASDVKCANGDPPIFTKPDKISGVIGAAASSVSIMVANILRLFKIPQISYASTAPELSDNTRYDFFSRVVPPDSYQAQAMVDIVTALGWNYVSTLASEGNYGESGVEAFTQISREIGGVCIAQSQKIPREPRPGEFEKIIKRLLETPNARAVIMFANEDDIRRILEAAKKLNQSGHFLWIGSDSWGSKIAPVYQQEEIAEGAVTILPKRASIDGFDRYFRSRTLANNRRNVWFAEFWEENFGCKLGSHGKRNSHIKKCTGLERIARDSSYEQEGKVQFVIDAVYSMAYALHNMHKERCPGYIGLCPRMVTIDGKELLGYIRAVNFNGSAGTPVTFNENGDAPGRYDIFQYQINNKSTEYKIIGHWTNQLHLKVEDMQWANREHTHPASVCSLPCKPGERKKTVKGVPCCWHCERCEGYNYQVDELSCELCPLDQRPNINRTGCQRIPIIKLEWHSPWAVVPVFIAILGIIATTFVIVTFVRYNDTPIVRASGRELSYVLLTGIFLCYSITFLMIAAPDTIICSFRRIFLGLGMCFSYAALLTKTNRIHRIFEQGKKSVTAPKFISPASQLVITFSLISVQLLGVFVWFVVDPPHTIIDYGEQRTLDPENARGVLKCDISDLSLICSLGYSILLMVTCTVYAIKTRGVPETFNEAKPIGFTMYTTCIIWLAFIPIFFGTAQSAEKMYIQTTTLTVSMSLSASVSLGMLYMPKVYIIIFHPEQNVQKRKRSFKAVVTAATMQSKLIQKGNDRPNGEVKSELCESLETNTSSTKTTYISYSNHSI

Row | SMILES | z-score
1 | O=C(CCc1ccccc1)Nc1ccc(Cl)cn1 | -0.45
2 | COc1ccc(Cn2c(O)c(C=Nc3ccc(OC)cc3)c3ccccc3c2=O)cc1 | -0.178
3 | CN1C(=O)CSc2ccc(NC(=O)NCCC3=CCCCC3)cc21 | -0.0569
4 | CCN(CC)S(=O)(=O)c1cccc(C(=O)Nc2cccc(C)c2)c1 | -0.358
5 | O=c1c2c([nH]c3ccccc13)CCCC2 | -0.224
6 | CCC(C)(C)n1nnnc1C(c1cc2cc(C)cc(C)c2[nH]c1=O)N1CCN(C(=O)c2ccco2)CC1 (stereo unspecified) | -0.323
7 | C=CCNc1nc2c(c(=O)n(C)c(=O)n2C)n1Cc1ccc(F)cc1 | -0.0556
8 | Cc1cccc(N2C(=N)SCC2=O)c1C | -0.273
9 | CCOc1ccccc1NC(=O)/C(C#N)=C/c1c(C)nn(-c2ccccc2)c1Cl | -0.199
10 | Cc1ccc(C(=O)Nc2ccc3c(c2)OCO3)o1 | -0.231
11 | Cc1cccc(-n2c(SCC(N)=O)nnc2-c2ccccn2)c1C | -0.0423
12 | CCc1ccc2c(CN3CCN(S(=O)(=O)c4ccc5c(c4)OCCO5)CC3)cc(=O)oc2c1 | -0.0216
13 | CCOc1cc(/C=N/N=C(/N)c2nonc2N)cc(Br)c1OCc1ccc(Cl)cc1 | -0.226
14 | Clc1cccc(N2CCN(Cc3nc(-c4ccccc4)no3)CC2)c1 | -0.21
15 | N/C(=N\OC(=O)COc1ccc2ccccc2c1)c1ccccn1 | -0.843
16 | Cc1ccc(S(=O)(=O)N2CCN(C(=O)COc3ccc(NC(=O)c4ccco4)cc3)CC2)cc1 | -0.0761
17 | O=C(CCn1c(=O)oc2ccccc21)NC1=NCCS1 | -1.31
18 | COc1ccc(OC)c(NC(=O)C2CCCN(S(=O)(=O)c3cccc4nonc34)C2)c1 (stereo unspecified) | 0.481
19 | CC(C)CCCC(C)NS(=O)(=O)Cc1ccccc1 (stereo unspecified) | -0.305

Row | SMILES | z-score
20 | COC(=O)c1ccc(CNC(=O)c2ccc(COc3ccccc3)cc2)cc1 | -0.175
21 | CC(C)C(c1nnnn1CC1CCCO1)N1CCN(Cc2ccc3c(c2)OCO3)CC1 (stereo unspecified) | -0.153
22 | Cc1ccc(N2CCN(CCc3nc4cc(NS(C)(=O)=O)ccc4n3C)CC2)cc1 | -1.79
23 | O=C(CCCCCNc1nc(=S)[nH]c2ccccc12)NCCc1ccccc1 | 0.302
24 | COc1ccc(CCNC(=O)CCSc2nc(-c3ccco3)cc(C(F)(F)F)n2)cc1OC | -2.59
25 | Clc1ccc2nc(CSc3nnc4ccccn34)cn2c1 | -0.129
26 | CCN(CC)C(=O)Oc1ccc(NC(C)=O)cc1 | 0.0908
27 | N#Cc1ccccc1N=Cc1ccc(Br)cc1 | -0.164
28 | O=C1c2ccccc2C(=O)N1CCCc1c[nH]c2ccccc12 | -0.611
29 | Cc1ccc(NC(=O)CS(=O)CC(=O)NCC2CCCO2)cc1 (stereo unspecified) | 0.0713
30 | O=C1CCc2cc(S(=O)(=O)NC(Cc3ccccc3)C(=O)NC3CCCC3)ccc2N1 (stereo unspecified) | 0.0438
31 | CCOC(=O)CSc1ncc(-c2ccc([N+](=O)[O-])cc2)[nH]1 | -0.303
32 | O=C(CN1C(=O)CSC1=O)Nc1ccccc1N1CCOCC1 | -0.141
33 | CC(=O)c1c(C)[nH]c(C(=O)Nc2ccc3c(c2)OCCO3)c1C | -0.0446
34 | CCN(Cc1cc2ccccc2[nH]c1=O)S(=O)(=O)c1ccccc1 | -0.028
35 | Cc1ccc(NC(=O)CN2C(=O)C3CCCCN3C(=O)c3ccccc32)cc1 (stereo unspecified) | 0.0289
36 | CCOC(=O)c1nnc(-c2ccc(C)cc2)nc1Sc1ccccc1Cl | 0.00195
37 | CCOc1ccc(-n2nnc3c(=O)n(C/C=C/c4ccccc4)cnc32)cc1 | 0.793
38 | COc1ccc(C(C)(C)C)cc1S(=O)(=O)N1CCC(C(N)=O)CC1 | 0.402

Row | SMILES | z-score
39 | O=C1C=C(O)CC(c2cccs2)C1 (stereo unspecified) | -0.0555
40 | COc1ccc(-c2csc(Nc3ncccc3C)n2)cc1OC | 0.0742
41 | Cc1c(C(=O)N/N=C/c2ccc(O)c(Br)c2)sc(N)c1C#N | -0.187
42 | Cc1ccc(C#N)c(SCc2nnc(-c3ccc(Cl)cc3)o2)n1 | -0.201
43 | Clc1nc(-c2ccccc2)cc(-c2ccccc2)n1 | 0.17
44 | CCN(CC)CCCNC(=O)N[C@@H](Cc1ccccc1)C(=O)O | -0.181
45 | CCCCCCCC(=O)NNC(=O)CCC(=O)O | 0.0901
46 | CCOC(=O)c1ccc(CSc2nnc(N)s2)cc1 | -0.194
47 | CCCCSc1nc(O)c(C2OC(=O)c3c2ccc(OC)c3OC)c(=O)n1C (stereo unspecified) | -0.59
48 | COc1cccc(NC(=O)NC2(C(F)(F)F)Oc3ccccc3O2)c1 | 0.97
49 | COc1ccc(C(C(=O)NCc2ccccc2)N(Cc2cccs2)C(=O)c2cnccn2)cc1 (stereo unspecified) | -0.354
50 | CC(/C=N/NC(=O)CSc1nc(C)cc(C)n1)=C\c1ccccc1 | -0.395
51 | O=C(NCc1cccnc1)/C(=C/c1ccco1)NC(=O)c1ccccc1 | -0.224
52 | CC1=NOC(=O)/C1=C/c1ccc(-c2ccc(Cl)cc2)o1 | -0.101
53 | CN(C)c1ccc(CN(C)C2CCCCC2)cc1 | -0.424
54 | CC1CCCC(C)N1C(=O)c1ccccc1Nc1ccc(SC(F)F)cc1 (stereo unspecified) | -0.0764
55 | COc1cccc(-c2nnc(SCc3ccc(C#N)cc3)n2Cc2ccco2)c1 | 0.343
56 | O=C(Cn1c(C(=O)NCCCN2CCOCC2)cc2sccc21)c1ccccc1 | -0.13
